# Measured values: the supplement of paper PMC10037445
# Over roughly 2,900 compounds, “IRF Lucia reporter activity, fold change vs agonist alone” has its median near 0.9; the highest 2% begin near 2.8. The list shows a part of the results.
# Assays:
# RAW-Dual [1] = assay: IRF Lucia reporter activity, fold change vs agonist alone; higher = enhanced IRF activity; settings: cytotoxicity flag (confluency mask): not cytotoxic, agonist: MPLA (TLR4) […]
# How it was run: (§1)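 Library stock was pin-tooled at 50 nL into 384-well plates of RAW-Dual macrophages (50,000 cells/well, DMEM), followed 1 h later by a PRR agonist, and the cells were kept at 37 °C, 5% CO2. Supernatant collected after 20 hours was read for IRF by QuantiLuc luminescence and for NF-κB by QuantiBlue absorbance at 620 nm. Reporter activity is fold change over agonist-alone wells, and a well counted as cytotoxic when its IncuCyte confluency was below 70% of agonist controls in both mask sets.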
# RAW-Dual [2] = assay: IRF Lucia reporter activity, fold change vs agonist alone; cytotoxicity flag (confluency mask): not cytotoxic; higher = enhanced IRF activity
# How it was run: as §1
# RAW-Dual [3] = assay: IRF Lucia reporter activity, fold change vs agonist alone; cytotoxicity flag (confluency mask): cytotoxic (confluency <70% of control); higher = enhanced IRF activity
# How it was run: as §1
# [4] = library stock concentration (final ~1000-fold dilution): 10 mM
# [5] = agonist: 3'3'-cGAMP (STING) 10 ug/mL
# [6] = library stock concentration (final ~1000-fold dilution): 10 mM water
smiles,measurement,setting,value
CN1C(CC(=O)c2ccccc2)CCCC1CC(O)c1ccccc1.Cl (stereo unspecified),IRF Lucia reporter activity,RAW-Dual [1]; [4],0.731
CN1C(CC(=O)c2ccccc2)CCCC1CC(O)c1ccccc1.Cl (stereo unspecified) (library stock concentration (final ~1000-fold dilution): 10 mM),IRF Lucia reporter activity,RAW-Dual [2]; [5],0.838
same,IRF Lucia reporter activity,RAW-Dual [2]; agonist: LPS (TLR4) 0.1 ug/mL,0.784
Cc1ccccc1N=Nc1ccc(NC(=O)c2ccnn2C)c(C)c1 (library stock concentration (final ~1000-fold dilution): 10 mM),IRF Lucia reporter activity,RAW-Dual [2]; [5],1.11
same,IRF Lucia reporter activity,RAW-Dual [2]; agonist: LPS (TLR4) 0.1 ug/mL,1.17
COC1OC(COS(=O)(=O)O)C(OC2OC(C(=O)O)C(OC3OC(COS(=O)(=O)O)C(OC4OC(C(=O)O)C(OC5OC(COS(=O)(=O)O)C(O)C(O)C5NS(=O)(=O)O)C(O)C4O)C(OS(=O)(=O)O)C3NS(=O)(=O)O)C(O)C2OS(=O)(=O)O)C(O)C1NS(=O)(=O)O (stereo unspecified) (library stock concentration (final ~1000-fold dilution): 10 mM water),IRF Lucia reporter activity,RAW-Dual [2]; [5],1.42
same,IRF Lucia reporter activity,RAW-Dual [2]; agonist: LPS (TLR4) 0.1 ug/mL,0.937
COC1OC(COS(=O)(=O)O)C(OC2OC(C(=O)O)C(OC3OC(COS(=O)(=O)O)C(OC4OC(C(=O)O)C(OC5OC(COS(=O)(=O)O)C(O)C(O)C5NS(=O)(=O)O)C(O)C4O)C(OS(=O)(=O)O)C3NS(=O)(=O)O)C(O)C2OS(=O)(=O)O)C(O)C1NS(=O)(=O)O (stereo unspecified),IRF Lucia reporter activity,RAW-Dual [1]; [6],1.37
O=C1CCC(N2Cc3c(OCc4ccc(CN5CCOCC5)cc4)cccc3C2=O)C(=O)N1 (stereo unspecified) (library stock concentration (final ~1000-fold dilution): 10 mM),IRF Lucia reporter activity,RAW-Dual [2]; [5],1.05
same,IRF Lucia reporter activity,RAW-Dual [2]; agonist: LPS (TLR4) 0.1 ug/mL,1.02
O=C(O)C1(C(=O)O)CCC1.[NH2-].[NH2-].[Pt+2] (library stock concentration (final ~1000-fold dilution): 10 mM water),IRF Lucia reporter activity,RAW-Dual [2]; [5],0.904
same,IRF Lucia reporter activity,RAW-Dual [2]; agonist: LPS (TLR4) 0.1 ug/mL,0.839
O=C(O)C1(C(=O)O)CCC1.[NH2-].[NH2-].[Pt+2],IRF Lucia reporter activity,RAW-Dual [1]; [6],1.14
CCOC(=O)CC(=O)O (library stock concentration (final ~1000-fold dilution): 10 mM water),IRF Lucia reporter activity,RAW-Dual [2]; [5],1.46
same,IRF Lucia reporter activity,RAW-Dual [2]; agonist: LPS (TLR4) 0.1 ug/mL,0.876
CCOC(=O)CC(=O)O,IRF Lucia reporter activity,RAW-Dual [1]; [6],1.31
C=C1C(=O)OC2C1CCC(C)=CCCC1(C)OC21 (stereo unspecified) (library stock concentration (final ~1000-fold dilution): 1 mM),IRF Lucia reporter activity,RAW-Dual [2]; [5],0.336
same,IRF Lucia reporter activity,RAW-Dual [2]; agonist: LPS (TLR4) 0.1 ug/mL,0.46
O=c1c(O)c(-c2ccc(O)c(O)c2)oc2cc(O)cc(O)c12,IRF Lucia reporter activity,RAW-Dual [1]; [4],0.807
O=c1c(O)c(-c2ccc(O)c(O)c2)oc2cc(O)cc(O)c12 (library stock concentration (final ~1000-fold dilution): 10 mM),IRF Lucia reporter activity,RAW-Dual [2]; [5],0.566
same,IRF Lucia reporter activity,RAW-Dual [2]; agonist: LPS (TLR4) 0.1 ug/mL,0.6
O=C(c1cncc(Br)c1)N1CCC(N2CCCC2)CC1,IRF Lucia reporter activity,RAW-Dual [1]; [4],1.03
O=C(c1cncc(Br)c1)N1CCC(N2CCCC2)CC1 (library stock concentration (final ~1000-fold dilution): 10 mM),IRF Lucia reporter activity,RAW-Dual [2]; [5],0.995
same,IRF Lucia reporter activity,RAW-Dual [2]; agonist: LPS (TLR4) 0.1 ug/mL,0.755
O=C(Nc1ccc([N+](=O)[O-])cc1O)Nc1ccccc1Br (library stock concentration (final ~1000-fold dilution): 10 mM),IRF Lucia reporter activity,RAW-Dual [3]; [5],0.209
same,IRF Lucia reporter activity,RAW-Dual [3]; agonist: LPS (TLR4) 0.1 ug/mL,1.5
CC1CCCC(C)N1 (stereo unspecified),IRF Lucia reporter activity,RAW-Dual [1]; [4],1.1
CC1CCCC(C)N1 (stereo unspecified) (library stock concentration (final ~1000-fold dilution): 10 mM),IRF Lucia reporter activity,RAW-Dual [2]; [5],1.02
same,IRF Lucia reporter activity,RAW-Dual [2]; agonist: LPS (TLR4) 0.1 ug/mL,1.28
O=C(O)CCCN1CCC(OC(c2ccc(Cl)cc2)c2ccccn2)CC1.O=S(=O)(O)c1ccccc1 (stereo unspecified) (library stock concentration (final ~1000-fold dilution): 10 mM),IRF Lucia reporter activity,RAW-Dual [2]; [5],1.06
same,IRF Lucia reporter activity,RAW-Dual [2]; agonist: LPS (TLR4) 0.1 ug/mL,0.914
O=C(O)CCCN1CCC(OC(c2ccc(Cl)cc2)c2ccccn2)CC1.O=S(=O)(O)c1ccccc1 (stereo unspecified),IRF Lucia reporter activity,RAW-Dual [1]; [4],1.05
O.c1cnc2c(c1)ccc1cccnc12,IRF Lucia reporter activity,RAW-Dual [1]; [4],1.31
O.c1cnc2c(c1)ccc1cccnc12 (library stock concentration (final ~1000-fold dilution): 10 mM),IRF Lucia reporter activity,RAW-Dual [2]; [5],0.918
same,IRF Lucia reporter activity,RAW-Dual [2]; agonist: LPS (TLR4) 0.1 ug/mL,1.02
CCOC(=O)C(CCc1ccccc1)NC(C)C(=O)N1Cc2cc(OC)c(OC)cc2CC1C(=O)O.Cl (stereo unspecified) (library stock concentration (final ~1000-fold dilution): 10 mM),IRF Lucia reporter activity,RAW-Dual [2]; [5],1.04
same,IRF Lucia reporter activity,RAW-Dual [2]; agonist: LPS (TLR4) 0.1 ug/mL,1.04
CCOC(=O)C(CCc1ccccc1)NC(C)C(=O)N1Cc2cc(OC)c(OC)cc2CC1C(=O)O.Cl (stereo unspecified),IRF Lucia reporter activity,RAW-Dual [1]; [4],0.973
CC1(C)CC[C@]2(C(=O)O)CC[C@]3(C)[C@H](C(=O)C=C4[C@@]5(C)C=C(C#N)C(=O)C(C)(C)[C@@H]5CC[C@]43C)[C@@H]2C1 (library stock concentration (final ~1000-fold dilution): 10 mM),IRF Lucia reporter activity,RAW-Dual [2]; [5],0.606
same,IRF Lucia reporter activity,RAW-Dual [2]; agonist: LPS (TLR4) 0.1 ug/mL,0.0177
Cl.Cl.OCCOCCN1CCN(C(c2ccccc2)c2ccc(Cl)cc2)CC1 (stereo unspecified) (library stock concentration (final ~1000-fold dilution): 10 mM),IRF Lucia reporter activity,RAW-Dual [2]; [5],0.828
same,IRF Lucia reporter activity,RAW-Dual [2]; agonist: LPS (TLR4) 0.1 ug/mL,1.22
Cl.Cl.OCCOCCN1CCN(C(c2ccccc2)c2ccc(Cl)cc2)CC1 (stereo unspecified),IRF Lucia reporter activity,RAW-Dual [1]; [4],1.16
COc1cccc(C=NCCN=Cc2cccc(OC)c2[O-])c1[O-].[Cl-].[Mn+2] (library stock concentration (final ~1000-fold dilution): 10 mM),IRF Lucia reporter activity,RAW-Dual [2]; [5],1.06
same,IRF Lucia reporter activity,RAW-Dual [2]; agonist: LPS (TLR4) 0.1 ug/mL,0.762
COc1cccc(C=NCCN=Cc2cccc(OC)c2[O-])c1[O-].[Cl-].[Mn+2],IRF Lucia reporter activity,RAW-Dual [1]; [4],0.946
Cc1cc(C(=O)C2=C(O)C(=O)N(CCCN3CCOCC3)C2c2ccncc2)ccc1OCc1ccccc1 (stereo unspecified) (library stock concentration (final ~1000-fold dilution): 10 mM),IRF Lucia reporter activity,RAW-Dual [2]; [5],1.08
same,IRF Lucia reporter activity,RAW-Dual [2]; agonist: LPS (TLR4) 0.1 ug/mL,1.12
N#Cc1ccc(COCC2OC(n3c(NCc4ccc(Cl)c(Cl)c4)nc4c(N)ncnc43)C(O)C2O)cc1 (stereo unspecified) (library stock concentration (final ~1000-fold dilution): 10 mM),IRF Lucia reporter activity,RAW-Dual [2]; [5],1.04
same,IRF Lucia reporter activity,RAW-Dual [2]; agonist: LPS (TLR4) 0.1 ug/mL,1.12
CCN1CCN(Cc2ccc(Nc3ncc(F)c(-c4cc(F)c5nc(C)n(C(C)C)c5c4)n3)nc2)CC1 (library stock concentration (final ~1000-fold dilution): 10 mM),IRF Lucia reporter activity,RAW-Dual [2]; [5],0.148
same,IRF Lucia reporter activity,RAW-Dual [2]; agonist: LPS (TLR4) 0.1 ug/mL,0.13
CCN1CCN(Cc2ccc(Nc3ncc(F)c(-c4cc(F)c5nc(C)n(C(C)C)c5c4)n3)nc2)CC1,IRF Lucia reporter activity,RAW-Dual [1]; [4],0.148
COCCc1ccc(OCC(O)CNC(C)C)cc1 (stereo unspecified),IRF Lucia reporter activity,RAW-Dual [1]; [4],1.07
COCCc1ccc(OCC(O)CNC(C)C)cc1 (stereo unspecified) (library stock concentration (final ~1000-fold dilution): 10 mM),IRF Lucia reporter activity,RAW-Dual [2]; [5],1.04
same,IRF Lucia reporter activity,RAW-Dual [2]; agonist: LPS (TLR4) 0.1 ug/mL,1.38
